Results reported in patent US20090241222A1, “TANDEM REAPEAT DNA CONSTRUCTS PRODUCING PROTEINS THAT ATTACK PLANT PATHOGENIC VIRUSES, FUNGI, AND BACTERIA BY DISRUPTING TRANSCRIPTION FACTORS ESSENTIAL FOR REPLICATION THEREOF IN PLANTS” (priority 2008, published 2009).

System: pathogenic fungus present in the test tube water
Assay: Portulaca resistance to pathogenic fungus induced by picolinic acid (FIG. 31)
Conditions: treatment for 10 days, 6 mM PA

## O=C(O)c1ccccn1 [picolinic acid, 2-pyridine carboxylic acid]
  fungal toxin disease resistance: fungal toxin disease resistant
